Data reported in ChEMBL document CHEMBL1201862, “PubChem BioAssay data set” (2004).
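Interpolation was linear, between the two tested concentrations surrounding the appropriate level; five concentrations were tested over 48 hours in 96-well plates. The concentration for 50% growth inhibition is given as GI50.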 The source made the active and inactive calls. Cut-off read from the data, not from the text of the source: active = GI50 up to about 1.1 µM and inactive = higher.

Legend:
Experiment in all cases: DTP human tumour cell line panel, 48 h
[1] = test system: OVCAR-8
[2] = test system: NCI-H460
[3] = test system: NCI-H226
[4] = test system: UO-31
[5] = test system: Hs-578T
[6] = test system: UACC-257
[7] = test system: M14
[8] = test system: SW-620
[9] = test system: MDA-N
[10] = test system: DU-145
[11] = test system: SNB-19
[12] = test system: KM12
[13] = test system: 786-0
[14] = test system: CAKI-1
[15] = test system: EKVX
[16] = test system: OVCAR-4
[17] = test system: SN12C
[18] = test system: HOP-62
[19] = test system: OVCAR-5
[20] = test system: SF-268
[21] = test system: MDA-MB-435
[22] = test system: ACHN
[23] = test system: T47D
[24] = test system: NCI/ADR-RES
[25] = test system: SF-295
[26] = test system: SNB-75
[27] = test system: HOP-92
[28] = test system: MCF7
[29] = test system: COLO 205
[30] = test system: HCT-116
[31] = test system: NCI-H522
[32] = test system: TK-10
[33] = test system: PC-3
[34] = test system: SK-MEL-2
[35] = test system: UACC-62
[36] = test system: NCI-H23
[37] = test system: K562
[38] = test system: MDA-MB-231
[39] = test system: OVCAR-3
[40] = test system: A498
[41] = test system: RPMI-8226
[42] = test system: RXF 393
[43] = test system: LOX IMVI
[44] = test system: BT-549
[45] = test system: MOLT-4
[46] = test system: SK-MEL-28
[47] = test system: HCC 2998
[48] = test system: SK-OV-3
[49] = test system: A549
[50] = test system: HCT-15
[51] = test system: U-251

O=C1Cc2c([nH]c3ccc(Br)cc23)-c2cccc(O)c2N1
GI50 [1]: inactive: 18.2 µM
GI50 [2]: inactive: 20.4 µM
GI50 [3]: inactive: 72.6 µM
GI50 [4]: inactive: 48.4 µM
GI50 [5]: inactive: 21.2 µM
GI50 [6]: inactive: 27.2 µM
GI50 [7]: inactive: 78 µM
GI50 [8]: inactive: 97.5 µM
GI50 [9]: inactive: > 100 µM
GI50 [10]: inactive: 27.4 µM
GI50 [11]: inactive: 83.9 µM
GI50 [12]: inactive: 29.5 µM
GI50 [13]: inactive: > 100 µM
GI50 [14]: inactive: > 100 µM
GI50 [15]: inactive: 86.5 µM
GI50 [16]: inactive: 67.9 µM
GI50 [17]: inactive: > 100 µM
GI50 [18]: inactive: 23.6 µM
GI50 [19]: inactive: > 100 µM
GI50 [20]: inactive: 30.1 µM
GI50 [21]: inactive: 49.8 µM
GI50 [22]: inactive: 60.4 µM
GI50 [23]: inactive: 6.11 µM
GI50 [24]: inactive: 18.8 µM
GI50 [25]: inactive: 55.7 µM
GI50 [26]: inactive: 26.8 µM
GI50 [27]: inactive: > 100 µM
GI50 [28]: inactive: 20.2 µM
GI50 [29]: inactive: > 100 µM
GI50 [30]: inactive: 50.6 µM
GI50 [31]: inactive: 14.4 µM
GI50 [32]: inactive: 29.3 µM
GI50 [33]: inactive: 48.8 µM
GI50 [34]: inactive: 70 µM
GI50 [35]: inactive: 50 µM
GI50 [36]: inactive: 16.8 µM
GI50 [37]: inactive: 14.7 µM
GI50 [38]: inactive: > 100 µM
GI50 [39]: inactive: 21.9 µM
GI50 [40]: inactive: > 100 µM
GI50 [41]: inactive: 4.28 µM
GI50 [42]: inactive: 27.4 µM
GI50 [43]: inactive: 21.5 µM
GI50 [44]: inactive: 16 µM
GI50 [45]: inactive: 12.6 µM
GI50 [46]: inactive: > 100 µM
GI50 [47]: inactive: 27 µM
GI50 [48]: inactive: 49 µM
GI50 [49]: inactive: 69.7 µM
GI50 [50]: 11.9 µM
GI50 [51]: inactive: 45.3 µM
